This is an account of results in PubChem BioAssay AID485344 (National Center for Advancing Translational Sciences (NCATS), 2010).

Out of some 340,000 compounds screened, about 6,900 (2%) were called active. Cut-off read from the data, not from the text of the source: active = inhibition above about 30%; inactive = below that, where a call was filed. The list shows a part of the results, in another mix than the full data. The source gives no active or inactive call for entries shown without one.

UniProt P14416, sequence (P14416 whole entry, looked up): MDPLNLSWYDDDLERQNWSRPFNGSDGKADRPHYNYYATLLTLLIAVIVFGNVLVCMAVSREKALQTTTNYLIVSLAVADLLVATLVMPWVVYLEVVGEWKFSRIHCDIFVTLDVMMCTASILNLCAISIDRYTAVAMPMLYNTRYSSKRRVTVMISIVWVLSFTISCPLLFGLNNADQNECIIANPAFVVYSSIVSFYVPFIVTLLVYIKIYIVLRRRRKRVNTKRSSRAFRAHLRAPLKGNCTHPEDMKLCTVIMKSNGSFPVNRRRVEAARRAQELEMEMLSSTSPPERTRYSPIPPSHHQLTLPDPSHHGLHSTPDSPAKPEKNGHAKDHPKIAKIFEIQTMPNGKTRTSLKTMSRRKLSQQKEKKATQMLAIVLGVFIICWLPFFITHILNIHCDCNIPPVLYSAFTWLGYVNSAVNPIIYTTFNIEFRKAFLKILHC

For this experiment, the target named is D(2) dopamine receptor (Homo sapiens) (UniProt P14416). As to the kind of experiment: HTS Assay for Allosteric Antagonists of the Human D2 Dopamine Receptor: Primary Screen for Antagonists. Note: 0% is about no effect. The conditions noted are these: HEK293 TREx D2 cells, calcium flux, dopamine EC80; at 10 µM; stronger effect = higher value. Put shortly:
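Inhibition of EC80 dopamine-driven calcium flux, recorded kinetically, defines activity here; cells are a tetracycline-induced HEK293 T-REx line expressing force-coupled D2.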
For orientation: Calcium flux is commonly read through the fluorescence of an indicator in the cells.
In the case of `COc1ccc(NS(=O)(=O)c2cnc(N)nc2)cc1Cl`, the inhibition was found to be 3.63%.
In the case of `O=c1c2c3c(sc2nc2n1CCCCC2)CCCCC3`, the inhibition was active: 56.7%.
Take `O=C(c1ccc2c(=O)n(CCc3ccccc3)c(=O)[nH]c2c1)N1CCN(c2ccc(F)cc2)CC1`: the inhibition was 11%.
Take `Cc1nn(-c2ccccc2)c2c1N(CC(=O)N1CCN(c3cccc(Cl)c3)CC1)C(=O)CS2`: the inhibition was 3.09%.
Consider `COc1ccc(Cn2c(=O)c3oc4ccccc4c3n(Cc3cccc(C(F)(F)F)c3)c2=O)cc1`, for which the inhibition was found to be 1.58%.
Regarding `Cc1cc(C)c(NC(=O)CSCc2c(C)noc2C)c(C)c1`, the inhibition was active: 49.1%.
Take `CCOc1ccc(C(=O)Nc2cccc(-c3nc4cc(Cl)cc(Cl)c4o3)c2)cc1`: the inhibition is -6.36%.
As for `COc1cccc(N2CC(NC(=O)c3ccco3)CC2=O)c1` (stereo not given), the inhibition is 26.1%.
Regarding `CCc1nn(CC(=O)NCCCN(CC(C)C)CC(C)C)c(=O)c2cc3sc(C)cc3n12`, the inhibition was 9.4%.
With `CCCCN(C)C(=O)C1CCCN(c2ncnc3onc(C)c23)C1` (stereo not given), the inhibition is 0.922%.
Consider `COc1ccccc1N1CCN(C(=O)Cn2cnc3onc(-c4ccc(F)cc4)c3c2=O)CC1`, for which the inhibition is -1.23%.
As to `Cc1ccc(C(=O)Nc2cc3nn(-c4ccccc4)nc3cc2Cl)c(C)c1`, the inhibition came to 3.08%.
Take `CC(C)c1ccc(CN(Cc2ccco2)c2cnc(S(C)(=O)=O)nc2C(=O)Nc2ccc(F)cc2)cc1`: the inhibition was -26.4%.
Turning to `CCOc1ccccc1N(CC(=O)NCCSc1ccccc1)S(=O)(=O)c1ccccc1`, the inhibition was -0.683%.
Take `COc1ccccc1Cc1nc2ccccc2nc1SCC(=O)N(C)c1ccc(F)cc1`: the inhibition turned out to be 5.03%.
Regarding `Cc1nnc(N2CCC(C(=O)NCCc3ccccc3Cl)CC2)c2nn(-c3ccccc3)c(C)c12`, the inhibition was 0.776%.
For the compound `Cc1cccc(N2CCN(C(=O)Nc3cn(CC(C)C)c(=O)c4ccccc34)CC2)c1C`, the inhibition is 5.99%.
Consider `Cc1ccccc1-c1nc2cc(NC(=O)Cc3ccc(Cl)cc3)ccc2o1`, for which the inhibition was 2.01%.
`CCCCCCOc1ccc(C2C(=O)N(C3CCCCC3)CC(=O)N2CCC)cc1` (stereo not given): the inhibition is 9.18%.
In the case of `CCOc1ccccc1CNC(=O)C1CCN(c2nn3cc(-c4ccc(F)cc4)nc3s2)CC1` it was -7.58%; in that of `Cc1cccc(N2CCN(C(=O)c3cccc(-n4c(C)nc5cccnc54)c3)CC2)c1C`, -3.57%.
Consider `COc1cc(CNCc2cc(OC)c(OC)c(OC)c2)cc(OC)c1`, for which the inhibition is active: 30.1%.
The result for `Cc1cccc(N2CCN(C(=O)c3cn(CC(C)C)c(=O)c4c3c3ccccc3n4C)CC2)c1C` reads -4.34%; that for `COc1cccc(N2CC(NC(=O)CCCc3ccccc3)CC2=O)c1` (stereo not given), 12.3%; that for `Cc1ccc(NS(=O)(=O)c2c(C)[nH]c(=O)[nH]c2=O)c(C)c1`, -9.14%.
In the case of `COc1ccc(-c2ccc(NS(=O)(=O)c3ccc(C(C)=O)cc3)cc2)nn1` it was -3.5%; in that of `Cc1ccc(-c2noc(CNC(=O)c3ccc(Br)o3)n2)cc1`, -6.39%; in that of `CC12CN3CC(C)(CN(C1)C3c1ccc(Br)cc1O)C2` (stereo not given), active: 36.1%.
`CCOC(=O)C1CCCN(C(=O)c2cc3c(=O)[nH]c4ccc(C)cc4c3s2)C1` (stereo not given): the inhibition is -14.3%.
`CN(Cc1ccccc1)S(=O)(=O)c1cc(Br)cc2c1N(C(=O)C1CC1)CC2`: the inhibition was determined as 2.83%.
Consider `CCC(C(=O)Nc1c(C)cc(C)cc1C)n1c(=O)c(-c2ccccc2NC(C)=O)nc2ccccc21` (stereo not given), for which the inhibition worked out at 1.61%.
Take `COc1ccc(NC(=O)CSc2nnc(NC(=O)Nc3ccc(OC)cc3)s2)cc1`: the inhibition was -22.8%.
The result for `CCCCN(C)CCCNC(=O)c1cc(-c2ccc(Br)s2)nc2ccccc12` reads 9.88%; that for `Cc1cccc(NC(=O)CCCCCn2c(=O)[nH]c3ccsc3c2=O)c1`, -3.09%; that for `CCOc1ccc(CCNC(=O)CCCn2nc(C)c3sc4ccccc4c3c2=O)cc1`, 5.19%.
In the case of `COc1cccc(Nc2sc(C(=O)c3ccc(F)cc3)c(N)c2C(=O)NCc2ccc(Cl)cc2)c1`, the inhibition came to 5.7%.
Consider `CC(C)c1ccc(S(=O)(=O)c2nnn3c2nc(N2CCCCC2)c2sccc23)cc1`, for which the inhibition is -15.8%.
With `COc1cccc(C(=O)Nc2ccc(-c3cc(C(F)(F)F)nn3-c3ccccc3)cc2)c1`, the inhibition was -5.32%.
For `CCOc1ccccc1CNS(=O)(=O)c1ccc2[nH]c(=O)ccc2c1`, the inhibition was -19.7%.
Take `CC(C)Cc1ccc(S(=O)(=O)Nc2cc3c(cc2N2CCOCC2)n(C)c(=O)c(=O)n3C)cc1`: the inhibition was determined as 1.28%.
`Cc1ccc(C)c(Cn2c(-c3cccs3)nc3ccccc32)c1`: the inhibition was -6.8%.
With `COc1ccc(NC(=O)CC2C(=O)N(c3cccc(C)c3)C(=O)N2C2CCCCC2)cc1` (stereo not given), the inhibition was -2.63%.
`COc1ccc(-c2nnc(SCC(=O)Nc3ccc(C(C)C)cc3)nc2-c2ccc(OC)c(OC)c2)cc1OC`: the inhibition is -2.89%.
In the case of `O=C(NC(Cc1ccc2c(c1)OCO2)C(=O)N1CCCC1C(=O)O)c1ccccc1` (stereo not given) it was active: 34.1%; in that of `Cc1cc(C)cc(S(=O)(=O)c2cn(C)c3cc(N4CCCC4)c(F)cc3c2=O)c1`, 1.66%; in that of `CCc1ccc(NC(=O)CSC2=Nc3ccccc3C3=NC(CCC(=O)NCc4ccco4)C(=O)N23)cc1` (stereo not given), 12%.
The result for `COc1ccc(C(=O)n2nc(-c3ccco3)nc2NCc2cccs2)cc1OC` reads 1.89%; that for `Cc1ccc(-c2nc3sc(CCNC(=O)c4ccc(C)c(C)c4)c(C)n3n2)cc1`, 10.6%.
For `O=C(CN1C(=O)CCc2cc(S(=O)(=O)N3CCOCC3)ccc21)NCc1ccccc1`, the inhibition was -6.72%.
Regarding `COc1ccc(-c2nc(CSc3nncn4c3cc3sccc34)c(C)o2)cc1OC`, the inhibition was 19.3%.
In the case of `CCOc1ccc(C(C)NC(=S)NC2CCCCC2)cc1OCC` (stereo not given), the inhibition was active: 40.7%.
In the case of `COc1ccc(C2=NS(=O)(=O)N(C)C(C(=O)Nc3ccc(OC)c(OC)c3)=C2)cc1` it was active: 55.7%; in that of `CCNc1nc(OC)nc(Oc2ccc(=O)[nH]n2)n1`, 14.6%; in that of `CCOC(=O)c1sc2nc(SC)nc(-c3ccccc3)c2c1N`, active: 30.8%.
Consider `CC(C)(C)c1ccc(S(=O)(=O)N2CCN(Cc3noc(CCC(=O)N4CCCCC4)n3)CC2)cc1`, for which the inhibition is 6.37%.
Consider `CCOC(=O)C1CCCN(C2CCN(Cc3nc(Cc4ccccc4)no3)CC2)C1` (stereo not given), for which the inhibition was active: 34.2%.
For `CN(C)S(=O)(=O)c1cccc(NC(=S)NNC(=O)c2cc3ccccc3cc2O)c1`, the inhibition is active: 56.2%.
Turning to `Cc1ccc(-c2c(C)n3c4c(=O)n(C)c(=O)n(C)c4nc3n2CCO)cc1`, the inhibition was determined as 6.99%.
`CC(=O)N1CCc2c(sc3c2c(=O)n(CCc2ccccc2)c(=O)n3Cc2ccc(Cl)cc2)C1`: the inhibition was -0.696%.
As to `CCOC(=O)C1CCN(C(=O)Cn2c(=O)oc3cc(S(=O)(=O)N4CCC(C)CC4)ccc32)CC1`, the inhibition is -10.9%.

The inhibition is the change of the read-out against control, counted positive when it falls.
